31 molecules from ChEMBL document CHEMBL1944624, “Synthesis and antimalarial and antituberculosis activities of a series of natural and unnatural 4-methoxy-6-styryl-pyran-2-ones, dihydro analogues and photo-dimers” (Bioorg Med Chem, 2012) can be followed below.

Each structure is given as a SMILES string. Converted amounts (≈) assume the structure as drawn.

This assay relates to Mycobacterium tuberculosis. Particulars: H37Rv.
`COc1cc(CCc2ccc3c(c2)OCO3)oc(=O)c1` showed an MIC of over 360 µM. In the case of `COc1cc(/C=C/c2ccc(OC)c(OC)c2)oc(=O)c1` it was over 350 µM; in that of `COc1cc(/C=C/c2cccc([N+](=O)[O-])c2)oc(=O)c1`, over 370 µM; in that of `COc1cc(/C=C/c2ccc([N+](=O)[O-])cc2)oc(=O)c1`, over 370 µM. For the molecule `COc1cc(/C=C/c2ccc(C(C)(C)C)cc2)oc(=O)c1`, the MIC was over 350 µM. In the case of `COc1cc(/C=C/c2ccc3c(c2)OCO3)oc(=O)c1` it was over 370 µM; in that of `COc1cc(/C=C/c2cccc(Oc3ccccc3)c2)oc(=O)c1`, over 310 µM. Under `COc1cc(/C=C/c2cccc(Oc3ccc(C(C)(C)C)cc3)c2)oc(=O)c1` stands over 270 µM. Under `COc1cc(/C=C/C=C/c2ccccc2)oc(=O)c1` stands over 390 µM; under `COc1cc(/C=C/C=C/c2ccc(N(C)C)cc2)oc(=O)c1`, 170 µM (≈ 50.6 µg/mL); under `COc1cc(/C=C/c2ccco2)oc(=O)c1`, over 460 µM. As to `COc1cc(/C=C/c2cccc3ccccc23)oc(=O)c1`, the MIC was over 360 µM. Under `COc1cc(/C=C/c2ccc3ccccc3c2)oc(=O)c1` stands over 360 µM; under `COc1cc(/C=C/c2ccc(/C=C/c3cc(OC)cc(=O)o3)cc2)oc(=O)c1`, over 260 µM; under `COc1cc(CCc2ccc(C(C)(C)C)cc2)oc(=O)c1`, 170 µM (≈ 48.7 µg/mL). Under `COc1cc(CCc2ccc(OC)c(OC)c2)oc(=O)c1` stands over 340 µM. Under `COc1cc(CCc2cccc(Oc3ccc(C(C)(C)C)cc3)c2)oc(=O)c1` stands 130 µM (≈ 49.2 µg/mL). Molecule `COc1cc(CCc2cccc3ccccc23)oc(=O)c1` registered an MIC of 270 µM (≈ 75.7 µg/mL). Under `COc1cc(CCc2ccc3ccccc3c2)oc(=O)c1` stands 180 µM (≈ 50.5 µg/mL); under `COc1cc(CCc2ccc(CCc3cc(OC)cc(=O)o3)cc2)oc(=O)c1`, over 260 µM. In the case of `COc1cc(=O)oc([C@H]2[C@H](c3ccc(OC)c(OC)c3)[C@H](c3cc(OC)cc(=O)o3)[C@H]2c2ccc(OC)c(OC)c2)c1` it was over 170 µM; in that of `COc1cc(=O)oc([C@H]2[C@H](c3ccc4ccccc4c3)[C@H](c3cc(OC)cc(=O)o3)[C@H]2c2ccc3ccccc3c2)c1`, over 180 µM; in that of `COc1cc([C@@H]2[C@@H](c3ccccc3)[C@@H](c3ccccc3)[C@@H]2c2cc(OC)cc(=O)o2)oc(=O)c1`, over 220 µM. Regarding `COc1cc([C@@H]2[C@@H](c3ccc4c(c3)OCO4)[C@@H](c3ccc4c(c3)OCO4)[C@@H]2c2cc(OC)cc(=O)o2)oc(=O)c1`, the MIC is over 180 µM. Turning to `COC1=CC(=O)O[C@]2(/C=C/c3ccc(C(C)(C)C)cc3)[C@H]1[C@H](c1ccc(C(C)(C)C)cc1)[C@H]2c1cc(OC)cc(=O)o1` (racemic), the MIC was over 180 µM. Under `COC1=CC(=O)O[C@]2(/C=C/c3cccc(Oc4ccc(C(C)(C)C)cc4)c3)[C@H]1[C@H](c1cccc(Oc3ccc(C(C)(C)C)cc3)c1)[C@H]2c1cc(OC)cc(=O)o1` (racemic) stands over 130 µM.

On to `COC1=CC(=O)O[C@]2(/C=C/c3ccccc3)[C@H]1[C@H](c1ccccc1)[C@H]2c1cc(OC)cc(=O)o1` (relative stereo), for which the MIC was over 220 µM. In the case of `COC1=CC(=O)O[C@]2(/C=C/c3ccc(OC)c(OC)c3)[C@H]1[C@H](c1ccc(OC)c(OC)c1)[C@H]2c1cc(OC)cc(=O)o1` (relative stereo) it was over 170 µM. On to `COc1cc(/C=C/c2ccccc2)oc(=O)c1` [DESMETHOXYYANGONIN], for which the MIC is over 440 µM. With `COc1cc(CCc2ccccc2)oc(=O)c1` [DIHYDRO-5,6-DEHYDROKAWAIN], the MIC was over 430 µM. As for `NNC(=O)c1ccncc1` [ISONIAZID], the minimal inhibitory concentration (MIC) is 0.22 µM (≈ 0.0302 µg/mL).
